Test results as given in PubChem BioAssay AID192 (DTP/NCI, 2004).
Inconclusive results and toxic doses are left out. A number of entries come with more than one value. They are shown here; other results are not. There may be further records. Values given together differ for a reason that is not stated; some may be repeats, others may stem from another dose, organism or construct than stated. Square brackets hold non-standard residues; d marks the D form. Peptide text beside a SMILES is read from it. ξ: configuration not given here. Ac5c = NC1(C(=O)O)CCCC1; ξS = NC(CO)C(=O)O

System: BDF1 mice, B16 melanoma ip, median survival T/C
Experiment: NCI In Vivo Anticancer Drug Screen. Data for tumor model B16 Melanoma (intraperitoneal) in B6D2F1 (BDF1) mice
Conditions: endpoint: median survival time, higher = longer survival
Method: The antitumor activity of compounds was measured in mice bearing transplantable tumors. Survival or tumor size were measured and the results are expressed as the measurement made in the treated group (T) divided by the measurement made in the vehicle treated control group (C). The tumor model used in this assay is B16 Melanoma (intraperitoneal) in B6D2F1 (BDF1) mice

SMILES: CC[N+](CC)(CC)CC
- T/C (dose: 25.0 mg/kg/injection, schedule: Q01DX009 (ip), vehicle: saline): 112 % of control and 151 % of control

SMILES: O=P1(N(CCCl)CCCl)NCCCO1 (stereo not drawn)
- T/C (dose: 50.0 mg/kg/injection, schedule: Q01DX009 (ip), vehicle: saline with Tween-80): 119 % of control and 160 % of control

SMILES: COc1cccc2c1C(=O)c1c(O)c3c(c(O)c1C2=O)C[C@H](O)C[C@@H]3OC1CC(N)C(O)C(C)O1 (stereo partly drawn)
- T/C (dose: 25.0 mg/kg/injection, schedule: Q01DX001 (ip), vehicle: water): 115 % of control, 168 % of control, 189 % of control

SMILES: COc1cccc2c1C(=O)c1c(O)c3c(c(O)c1C2=O)C[C@@](O)(C(=O)COC(=O)c1cccnc1)C[C@@H]3OC1CC(N)C(O)C(C)O1 (stereo partly drawn)
- T/C (dose: 1.5 mg/kg/injection, schedule: Q01DX001 (ip), vehicle: water): 101 % of control, 158 % of control, 169 % of control

SMILES: OC(C1CO1)C(O)C1CO1 (stereo not drawn)
- T/C (dose: 2.0 mg/kg/injection, schedule: Q04DX003 (ip), vehicle: saline): 119 % of control and 156 % of control
- T/C (dose: 4.0 mg/kg/injection, schedule: Q04DX003 (ip), vehicle: saline): 123 % of control and 195 % of control

SMILES: CO[C@H]1C[C@](C)(O)Cc2cc3c(c(O)c21)C(=O)c1c(O)cc2c(c1C3=O)O[C@@H]1O[C@@]2(C)[C@H](O)[C@@H](N(C)C)[C@@H]1O
- T/C (dose: 50.0 mg/kg/injection, schedule: Q01DX001 (ip), vehicle: water): 112 % of control and 151 % of control
- T/C (dose: 100.0 mg/kg/injection, schedule: Q01DX001 (ip), vehicle: water): 110 % of control and 159 % of control
- T/C (dose: 200.0 mg/kg/injection, schedule: Q01DX001 (ip), vehicle: water): 114 % of control and 151 % of control

SMILES: CC1OC(OC2CC(O)(C(=O)CO)Cc3c(O)c4c(c(O)c32)C(=O)c2ccccc2C4=O)CC(N)C1O (stereo not drawn)
- T/C (dose: 3.0 mg/kg/injection, schedule: Q01DX001 (ip), vehicle: water): 98 % of control and 307 % of control

SMILES: O=C1NC2(CCCCC2)C(=O)N1CCN(CCCl)CCCl
- T/C (dose: 1.5 mg/kg/injection, schedule: Q01DX009 (ip), vehicle: saline with Tween-80): 109 % of control and 154 % of control
- T/C (dose: 3.0 mg/kg/injection, schedule: Q01DX009 (ip), vehicle: saline with Tween-80): 118 % of control and 186 % of control

SMILES: NC(CO)C(=O)NC1(C(=O)O)CCCC1 (stereo not drawn) (H-[ξS]-[Ac5c]-OH)
- T/C (dose: 200.0 mg/kg/injection, schedule: Q04DX003 (ip), vehicle: saline with Tween-80): 103 % of control and 150 % of control
